Where “and” joins values, the source holds several entries; their conditions need not be identical. Identical values can stand only once.
Target: human κ-opioid receptor (OPRK1) (Homo sapiens, UniProt P41145)
Assay: cell-based
Details: KOR Antagonist EC50 ± SEM (nM), cAMP assay; antagonist potency versus EC90 of U50488H

Sequence of UniProt P41145 (P41145 whole entry): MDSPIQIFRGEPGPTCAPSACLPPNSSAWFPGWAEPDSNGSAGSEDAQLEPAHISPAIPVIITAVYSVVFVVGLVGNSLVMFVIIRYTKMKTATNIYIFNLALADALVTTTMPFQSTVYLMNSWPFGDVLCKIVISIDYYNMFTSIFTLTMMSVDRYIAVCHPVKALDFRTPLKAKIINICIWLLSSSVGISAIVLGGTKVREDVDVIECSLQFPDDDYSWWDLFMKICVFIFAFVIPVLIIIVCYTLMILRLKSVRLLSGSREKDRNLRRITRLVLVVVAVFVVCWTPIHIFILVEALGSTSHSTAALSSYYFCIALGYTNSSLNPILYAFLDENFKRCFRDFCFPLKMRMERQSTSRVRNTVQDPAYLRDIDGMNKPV

First: OC[C@H]1[C@H]2CCC[C@]1(c1cccc(O)c1)CCN2CCc1ccccc1 [Compound 11, 3-((1R,5S,9R)-9-(Hydroxymethyl)-2-phenethyl-2-azabicyclo[3.3.1]nonan-5-yl)phenol]
Second: OC[C@H]1[C@@H]2CCC[C@@]1(c1cccc(O)c1)CCN2CCc1ccccc1 [Compound 15, 3-((1S,5R,9R)-9-(Hydroxymethyl)-2-phenethyl-2-azabicyclo[3.3.1]nonan-5-yl)phenol]
The EC50 of the first is 11-fold higher: 271 ± 92 nM for the first, 24 ± 5 nM for the second.

First: OCCC[C@H]1[C@H]2CCC[C@]1(c1cccc(O)c1)CCN2CCc1ccccc1 [Compound 34, 3-((1R,5S,9R)-9-(3-Hydroxypropyl)-2-phenethyl-2-azabicyclo[3.3.1]nonan-5-yl)phenol]
Second: OCCC[C@H]1[C@@H]2CCC[C@@]1(c1cccc(O)c1)CCN2CCc1ccccc1 [Compound 36]
The EC50 of the first is 11-fold higher: 1910 ± 571 nM for the first, 180 ± 30 nM for the second.

Work on COC[C@H]1[C@H]2CCC[C@]1(c1cccc(O)c1)CCN2CCc1ccccc1 [Compound 41, 3-((1R,5S,9R)-9-(Methoxymethyl)-2-phenethyl-2-azabicyclo[3.3.1]nonan-5-yl)phenol] yielded an EC50 of 1370 ± 361 nM.

For OCC[C@H]1[C@@H]2CCC[C@@]1(c1cccc(O)c1)CCN2CCc1ccccc1 [Compound 21, 3-((1S,5R,9R)-9-(2-Hydroxyethyl)-2-phenethyl-2-azabicyclo[3.3.1]nonan-5-yl)phenol], the EC50 was > 100 nM and 111 nM.
